# Source: the BET-seq Pho4 binding data (Le et al. 2018)
# The list shows a part of the results. Values were computed here from the reads of four pooled replicates and scatter widely.
# Biological target: T1, Pho4 (S. cerevisiae) (UniProt P07270)
# T1 sequence: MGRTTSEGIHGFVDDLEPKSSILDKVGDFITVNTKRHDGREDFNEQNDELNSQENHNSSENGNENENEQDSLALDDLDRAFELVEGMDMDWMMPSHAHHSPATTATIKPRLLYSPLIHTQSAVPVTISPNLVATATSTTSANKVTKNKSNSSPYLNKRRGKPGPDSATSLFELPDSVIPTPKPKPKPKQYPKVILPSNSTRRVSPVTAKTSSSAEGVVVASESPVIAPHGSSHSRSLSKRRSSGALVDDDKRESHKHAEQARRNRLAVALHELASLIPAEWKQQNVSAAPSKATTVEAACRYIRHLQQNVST
# Assay: relative binding free energy (BET-seq); higher = weaker binding
# Conditions: reference: library average
row,Sequence,relative binding free energy [kcal/mol]
1,GCAGTCACGTGGAAGG,0.24
2,TGGGTCACGTGCGGTC,0
3,TTTTTCACGTGAAAGT,0.44
4,TCAAACACGTGGGGGA,-0.08
5,ATGCGCACGTGTGGAG,-0.01
6,ACTTGCACGTGAGAGG,0.19
7,GTCGGCACGTGCTGTA,-0.1
8,GGGAGCACGTGTTATA,0.01
9,TTAAGCACGTGTGTAC,-0.05
10,GGGAGCACGTGAGGAT,0.21
11,CTGTGCACGTGTTTGT,0.02
12,GCTTTCACGTGTGTTG,0.24
13,TAGCTCACGTGGGTTG,0.03
14,TGTGCCACGTGCGTGT,-0.36
15,GTAAGCACGTGGGGTG,-0.19
16,TTGGTCACGTGTGTTC,0.15
17,GTGTGCACGTGGTCGG,-0.09
18,ATTATCACGTGGTAAA,0
19,GAGTACACGTGTCGGT,0.08
20,ATGTGCACGTGCGTGG,-0.17
21,GTTGACACGTGAGTCT,0.22
22,GGCTGCACGTGTTTGG,0.14
23,ATAAACACGTGTTCGT,0.04

row,Sequence,relative binding free energy [kcal/mol]
1,GGGCACACGTGGGTGA,-0.12
2,GTTGTCACGTGGCACG,0.06
3,CAAGGCACGTGTAGGA,0.04
4,CTCTGCACGTGGGGTA,-0.22
5,AAACGCACGTGATGTT,0.13
6,ATGTTCACGTGATATT,0.27
7,TTTCTCACGTGTTTTG,0.26
8,GGCACCACGTGTAGGG,0.01
9,TGAGGCACGTGCGAGG,-0.12
10,TGTTTCACGTGATCCT,0.41
11,GGGTTCACGTGGTCGG,0.32
12,CTGGGCACGTGAATTG,0.23
13,AAGTACACGTGTTAAG,0.13
14,TGATTCACGTGTTATT,0.13
15,GGAGACACGTGACGTG,0.14
16,GGCCTCACGTGAGGTT,0.42
17,TATATCACGTGGATAA,0.27
18,TTTGACACGTGGGGGC,-0.18
19,TGTCACACGTGGTGGT,-0.06
20,TTCGTCACGTGTGCAT,0.13
21,CCGTGCACGTGAGGTG,0.06
22,ATCGACACGTGGAGTG,0.04
23,CGGGACACGTGCGAGG,0.13

row,Sequence,relative binding free energy [kcal/mol]
1,GGGCTCACGTGTTTGT,0.15
2,TTAGGCACGTGCCTGT,-0.08
3,TGTGGCACGTGTTAGC,-0.09
4,GGCAGCACGTGGGGTC,-0.17
5,CACTTCACGTGTTGGT,0.47
6,GGGTGCACGTGAAGCG,0.27
7,GGCGTCACGTGATGGT,0.29
8,ATGGGCACGTGGCAGG,-0.19
9,GTTTTCACGTGTGGCC,0.41
10,GGCGGCACGTGGGTCG,-0.16
11,TATGTCACGTGGCAGT,0.03
12,GAGGGCACGTGAAGGA,0.29
13,GGCTACACGTGCTGGG,0.06
14,ATATGCACGTGTGAAT,0.07
15,CGGCGCACGTGGGGAT,-0.18
16,TAGAACACGTGAGTGG,0.21
17,CCTTGCACGTGATGTG,0.19
18,TTGGTCACGTGTAGCG,0.24
19,CGTATCACGTGAGGGT,0.25
20,GGTTTCACGTGTAACG,0.29
21,TATGTCACGTGTCATG,0.21
22,ACATTCACGTGTGAGG,0.24
23,GTTGGCACGTGGGACG,-0.16

row,Sequence,relative binding free energy [kcal/mol]
1,TTGATCACGTGGGCAC,0.09
2,TATATCACGTGGTGAT,0.17
3,GTGCGCACGTGCGTGT,-0.22
4,TGCGACACGTGGTACG,0.06
5,GGCGTCACGTGCTGGG,0.13
6,AGGCCCACGTGTTGGG,-0.05
7,AAGTGCACGTGGTCTG,-0.15
8,GGGGACACGTGCTTTT,0.06
9,AAAGGCACGTGGTAGT,-0.22
10,AGCGGCACGTGTTTAG,-0.08
11,TTGTTCACGTGATCTG,0.4
12,GTCAGCACGTGGGTGT,-0.22
13,TGTGGCACGTGCGTTA,-0.19
14,AAATTCACGTGTAGGG,0.28
15,TATTACACGTGGCATG,-0.01
16,TCGTGCACGTGTTTTT,0.02
17,CTGGGCACGTGTTTGG,0
18,TTAAACACGTGTCGGT,-0.07
19,CGATTCACGTGTGCGG,0.26
20,AAGGTCACGTGGGGGA,-0.02
21,TTGTTCACGTGGAGCA,0.17
22,GTAGACACGTGGGTAA,-0.13
23,AATGGCACGTGTGTTA,0

row,Sequence,relative binding free energy [kcal/mol]
1,GATTGCACGTGGGACG,0.07
2,ATGTACACGTGCGTGT,-0.11
3,GTTCGCACGTGGAATG,0.03
4,AAGTACACGTGGAGGG,0.16
5,GACTTCACGTGGTTTT,0.38
6,GGTGACACGTGTGGCT,0
7,TAGGGCACGTGAGTTC,0.02
8,AAGTTCACGTGGTTAT,0.31
9,TGGCCCACGTGAGGTG,0.06
10,ATAATCACGTGTTGTA,0.18
11,TAGCGCACGTGTGCTG,-0.07
12,TTTAGCACGTGTTAGA,0.04
13,TGTTCCACGTGGGGAG,-0.03
14,TACTTCACGTGGCGGT,0.17
15,TAGCGCACGTGAGGGA,0.06
16,GTAGGCACGTGTAGCA,0.12
17,AGAAGCACGTGGTTAA,-0.13
18,CACGGCACGTGTTGGT,-0.08
19,CGCGTCACGTGTAAGG,0.38
20,GTAGGCACGTGTAGTA,-0.02
21,GTGTGCACGTGTGCAT,-0.02
22,AAAGTCACGTGTTGAT,0.2
23,AAGGTCACGTGTCTTT,0
